Experimental data published in patent US5475132A, “Antifungal agents based on amides containing a phenyl group” (Rhone-Poulenc Agrochimie, priority 1988, dated 1995).

What follows are molecules tested on Plasmopara viticola (assay: Example B2: treatment of vine mildew (Plasmopara viticola) on vine cuttings). Details: 192 h, 330 ppm (0.33 g/l), vine cuttings, 8 days after infection, read-out: inhibition of the development of the mould.
Protocol: Treatment of vine mildew (Plasmopara viticola)
Vine (Vitis vinifera) cuttings of the Chardonnay variety are cultivated in pots. When these plants are 2 months old (8 to 10 leaf stage, height 20 to 30 cm) they are treated in the same manner as in Example B1.
After drying for 24 hours, each plant is infected by spraying with an aqueous suspension of spores of Plasmopara viticola which is responsible for vine mildew, at the rate of about 5 ml/plant (that is about 100,000 spores per plant).
After this infection, the vine plants are incubated for two days at about 18° C. in a saturated atmosphere, then for five days at about 20°-22° C. and 90-100% relative humidity.
Eight days after infection, the results obtained in the case of the plants treated with the active material to be tested are compared with those obtained in the case of plants used as controls.

SMILES | inhibition at 330 ppm [%]
COc1ccc(-c2c(C(=O)N3CCOCC3)sc3ccc(I)cc23)cc1OC [Compound 101, 2-(4-morpholinocarbonyl)-5-iodo-3-(3,4-dimethoxyphenyl)benzothiophene] | ≥ 80
C=C(C)c1ccc2sc(C(=O)N3CCOCC3)c(-c3ccc(OC)c(OC)c3)c2c1 [Compound 105, 2-(4-Morpholinocarbonyl)-5-(propen-2-yl)-3-(3,4-dimethoxyphenyl)benzothiophene] | ≥ 80
CCN(CC)C(=O)c1sc2ccccc2c1-c1ccc(OC)c(OC)c1 [Compound 107, 2-(N,N-Diethylcarboxamide)-3-(3,4-dimethoxyphenyl)benzothiophene] | ≥ 80
COc1ccc(-c2c(C(=O)N3CCOCC3)sc3ccc(Br)cc23)cc1OC [Compound 114] | ≥ 80
COc1ccc(-c2c(C(=O)N3CCOCC3)sc3ccc(NC(C)=O)cc23)cc1OC [Compound 115] | ≥ 80
COc1ccc(-c2c(C(=O)N3CCOCC3)sc3ccc(NC(=O)C(F)(F)F)cc23)cc1OC [Compound 116] | ≥ 80
COc1ccc(-c2c(C(=O)N3CCOCC3)sc3c(N)cccc23)cc1OC [Compound 121] | ≥ 80
COc1ccc(-c2c(C(=O)N3CCOCC3)sc3c(F)cccc23)cc1OC [Compound 122] | ≥ 80
COc1ccc(-c2c(C(=O)N3CCOCC3)sc3c(Br)cccc23)cc1OC [Compound 123] | ≥ 80
COc1ccc(-c2c(C(=O)N3CCOCC3)sc3c(Cl)cccc23)cc1OC [Compound 124] | ≥ 80
COc1ccc(-c2c(C(=O)N3CCOCC3)sc3cc(Cl)ccc23)cc1OC [Compound 125] | ≥ 80
COc1ccc(-c2c(C(=O)N3CCOCC3)sc3c(C)cccc23)cc1OC [Compound 127] | ≥ 80
COc1ccc(-c2c(C(=O)N3CCOCC3)sc3cccc(Cl)c23)cc1OC [Compound 128] | ≥ 80
COc1ccc(-c2c(C(=O)N3CCOCC3)sc3cccc(C)c23)cc1OC [Compound 130] | ≥ 80
COc1ccc(-c2c(C(=O)N3CCOCC3)sc3c(NC(=O)C(F)(F)F)cccc23)cc1OC [Compound 131] | ≥ 80
COc1ccc(-c2c(C(=O)N3CCOCC3)sc3c(NC(C)=O)cccc23)cc1OC [Compound 132] | ≥ 80
COc1ccc(-c2c(C(=O)N3CCOCC3)sc3ccc(-c4ccsc4)cc23)cc1OC [Compound 134] | ≥ 80
COc1ccc(-c2c(C(=O)N3CCOCC3)oc3ccc([N+](=O)[O-])cc23)cc1OC [Compound 136] | ≥ 80
COc1ccc(-c2c(C(=O)N3CCOCC3)oc3ccccc23)cc1OC [Compound 137] | ≥ 80
COc1ccc(-c2c(C(=O)N3CCOCC3)n(C)c3ccc([N+](=O)[O-])cc23)cc1OC [Compound 141] | ≥ 80
COc1ccc(-c2c(C(=O)N3CC(C)OC(C)C3)sc3ccccc23)cc1OC (stereo not drawn) [Compound 152] | ≥ 80
COc1ccc(-c2c(C(=O)N3CCCCC3)sc3ccccc23)cc1OC [Compound 153] | ≥ 80
COc1ccc(-c2c(C(=O)N3CCCC3)sc3ccccc23)cc1OC [Compound 154] | ≥ 80
COc1ccc(-c2c(C(=O)N(C)C)sc3ccccc23)cc1OC [Compound 155] | ≥ 80

SMILES | inhibition at 330 ppm [%]
COc1ccc(-c2c(C(=O)N(C)CCO)sc3ccccc23)cc1OC [Compound 156] | ≥ 80
COc1ccc(-c2c(C(=O)N3CCCCC3CO)sc3ccccc23)cc1OC (stereo not drawn) [Compound 157] | ≥ 80
COCCN(C)C(=O)c1sc2ccccc2c1-c1ccc(OC)c(OC)c1 [Compound 158] | ≥ 80
COCC1CCCCN1C(=O)c1sc2ccccc2c1-c1ccc(OC)c(OC)c1 (stereo not drawn) [Compound 159] | ≥ 80
COc1ccc(-c2c(C(=O)N3CCCC3CO)sc3ccccc23)cc1OC (stereo not drawn) [Compound 160] | ≥ 80
COCC1CCCN1C(=O)c1sc2ccccc2c1-c1ccc(OC)c(OC)c1 (stereo not drawn) [Compound 163] | ≥ 80
COc1ccc(-c2c(C(=O)N3CC(C)OC(C)C3)sc3ccc(F)cc23)cc1OC (stereo not drawn) [Compound 168] | ≥ 80
COCCN(CCOC)C(=O)c1sc2ccc(F)cc2c1-c1ccc(OC)c(OC)c1 [Compound 170] | ≥ 80
COCCN(C)C(=O)c1ccc(Br)cc1-c1ccc(OC)c(OC)c1 [Compound 204] | ≥ 80
COCCN(C)C(=O)c1ccc(Cl)cc1-c1ccc(OC)c(OC)c1 [Compound 210] | ≥ 80
C=C(C)c1ccc(C(=O)N(C)CCOC)c(-c2ccc(OC)c(OC)c2)c1 [Compound 213] | ≥ 80
CCN(C)C(=O)c1ccc(-c2ccc(C)cc2)cc1-c1ccc(OC)c(OC)c1 [Compound 215] | ≥ 80
COc1ccc(-c2cc(-c3ccc(C)cc3)ccc2C(=O)N(C)C)cc1OC [Compound 217] | ≥ 80
O=C(c1ccc(-c2ccc(F)cc2)cc1-c1ccc2c(c1)OCO2)N1CCOCC1 [Compound 229] | ≥ 80
COc1ccc(-c2ccc(C(=O)N3CCOCC3)c(-c3ccc(OC)c(OC)c3)c2)cc1OC [Compound 234] | ≥ 80
COc1ccc(-c2cc(-c3ccc4c(c3)OCO4)ccc2C(=O)N2CCOCC2)cc1OC [Compound 239] | ≥ 80
COCCN(CCOC)C(=O)c1ccc(-c2ccc(F)cc2)nc1-c1ccc(OC)c(OC)c1 [Compound 351] | ≥ 80
COCCN(C)C(=O)c1ccc(-c2ccccc2)nc1-c1ccc(OC)c(OC)c1 [Compound 354] | ≥ 80
COc1ccc(-c2nc(-c3ccc(C4CC4(Cl)Cl)cc3)ccc2C(=O)N2CCOCC2)cc1OC (stereo not drawn) [Compound 355] | ≥ 80
CCCCN(C)C(=O)c1ccc(-c2ccccc2)nc1-c1ccc(OC)c(OC)c1 [Compound 361] | ≥ 80
CCCCN(C)C(=O)c1ccc(-c2ccc(Cl)cc2)nc1-c1ccc(OC)c(OC)c1 [Compound 362] | ≥ 80
COc1ccc(-c2nc(-c3ccc(Cl)cc3)ccc2C(=O)N(C)CC#N)cc1OC [Compound 363] | ≥ 80
CCCN(C)C(=O)c1ccc(-c2ccccc2)nc1-c1ccc(OC)c(OC)c1 [Compound 365] | ≥ 80
COc1ccc(-c2nc(-c3ccc(Br)cc3)ccc2C(=O)N(C)CCOC(C)=O)cc1OC [Compound 366] | ≥ 80

SMILES | inhibition at 330 ppm [%]
COc1ccc(-c2nc(-c3ccc(Cl)cc3)c(C)cc2C(=O)N2CCOCC2)cc1OC [Compound 367] | ≥ 80
COc1ccc(-c2nc(-c3ccc(F)cc3)c(C)cc2C(=O)N2CCOCC2)cc1OC [Compound 368] | ≥ 80
COc1ccc(-c2nc(-c3ccc(Cl)cc3)ccc2C(=O)N2CCCC2)cc1OC [Compound 373] | ≥ 80
COc1ccc(-c2nc(-c3ccc(Cl)cc3)ccc2C(=O)N2CC(C)OC(C)C2)cc1OC (stereo not drawn) [Compound 374] | ≥ 80
COc1ccc(-c2nc(-c3ccc(Cl)cc3)ccc2C(=O)NCC2CCCO2)cc1OC (stereo not drawn) [Compound 375] | ≥ 80
COc1ccc(-c2nc(-c3ccc(Cl)cc3)ccc2C(=O)N2CCCCC2)cc1OC [Compound 376] | ≥ 80
COc1ccc(-c2nc(-c3ccc(Cl)cc3)ccc2C(=O)N2CCC(O)CC2)cc1OC [Compound 377] | ≥ 80
COc1ccc(-c2nc(-c3ccc(Cl)cc3)ccc2C(=O)N(C)Cc2ccco2)cc1OC [Compound 378] | ≥ 80
COc1ccc(-c2nc(-c3ccc(Br)cc3)ccc2C(=O)N(C)CCO)cc1OC [Compound 380] | ≥ 80
COc1ccc(-c2nc(-c3ccc(Cl)cc3)ccc2C(=O)N(C)CCO)cc1OC [Compound 383] | ≥ 80
COc1ccc(-c2nc(-c3ccccc3)ccc2C(=O)N(C)CCC#N)cc1OC [Compound 387] | ≥ 80
COc1ccc(-c2ccc(C(=O)N3CCOCC3)c(-c3ccc(OC)c(OC)c3)n2)cc1 [Compound 389] | ≥ 80
CCN(C)C(=O)c1ccc(-c2ccc(Br)cc2)nc1-c1ccc(OC)c(OC)c1 [Compound 390] | ≥ 80
COc1ccc(-c2nc(-c3ccc(Cl)cc3)ccc2C(=O)N(C)OC)cc1OC [Compound 394] | ≥ 80
COc1ccc(-c2nc(-c3ccc(Cl)cc3)ccc2C(=O)N(C)CCOC(C)=O)cc1OC [Compound 397] | ≥ 80
CCN(C)C(=O)c1ccc(-c2ccc(C#N)cc2)nc1-c1ccc(OC)c(OC)c1 [Compound 399] | ≥ 80
CCN(CC)C(=O)c1cnc(-c2ccc(Cl)c(Cl)c2)nc1-c1ccc(OC)c(OC)c1 [Compound 420] | ≥ 80
CCN(C)C(=O)c1cnc(-c2ccc(Cl)c(Cl)c2)nc1-c1ccc(OC)c(OC)c1 [Compound 421] | ≥ 80
COc1ccc(-c2nc(Sc3ccc(Cl)cc3)ncc2C(=O)N2CCOCC2)cc1OC [Compound 436] | ≥ 80
COc1ccc(-c2nc(Oc3ccc(Cl)cc3)ncc2C(=O)N2CCOCC2)cc1OC [Compound 437] | ≥ 80
COc1ccc(-c2nc(Oc3ccc(Br)cc3)ncc2C(=O)N2CCOCC2)cc1OC [Compound 438] | ≥ 80
COc1ccc(-c2nc(Oc3ccc(F)cc3)ncc2C(=O)N2CCOCC2)cc1OC [Compound 439] | ≥ 80
COc1ccc(-c2nc(Oc3ccc(Cl)c(C)c3)ncc2C(=O)N2CCOCC2)cc1OC [Compound 441] | ≥ 80

Same assay, conditions: 192 h, read-out: inhibition of the development of the mould

SMILES | inhibition at 330 ppm [%]
COc1ccc(-c2c(C(=O)N3CCC(=O)CC3)sc3ccccc23)cc1OC [Compound 162] | ≥ 80
